Results on 172 sequences are retold here after PMC4242493.

Some of the results follow. The list includes weakly bound sequences.

This experiment has as its target MaxL homodimer (UniProt P61244). Kind of experiment: universal protein-binding microarray (PBM). The conditions noted are these: PBS-based mixture, 10 nM His-tagged protein dimer, 2% milk, 200 ng/uL BSA, 50 ng/uL salmon testes DNA, 0.02% TX-100; detection with Alexa 488 anti-His …; high values mean tight binding; most listed sequences are background and not binding sites; double strand, one strand shown.
UniProt P61244, sequence (P61244 whole entry): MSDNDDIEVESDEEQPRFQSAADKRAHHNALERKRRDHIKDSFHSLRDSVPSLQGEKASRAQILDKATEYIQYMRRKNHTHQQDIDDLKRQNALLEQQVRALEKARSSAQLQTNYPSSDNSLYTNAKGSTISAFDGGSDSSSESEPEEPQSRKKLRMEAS
On to GGAAAAGA, for which the binding signal (normalized occupancy) was determined as 0.0734.

On to GAATCATC, for which the binding signal (normalized occupancy) came out at 0.0782.

Take TCATAACA: the binding signal (normalized occupancy) is 0.0873.

ACTCATTC: the binding signal (normalized occupancy) stood at 0.0738.

With ACGACCTC, the binding signal (normalized occupancy) was determined as 0.0713.

As for AACACCAT, the binding signal (normalized occupancy) came out at 0.0807.

Take CGTGTCCA: the binding signal (normalized occupancy) stood at 0.0813.

Regarding CCTGTGGC, the binding signal (normalized occupancy) worked out at 0.0714.

In the case of CCTGTGAA, the binding signal (normalized occupancy) was found to be 0.0752.

In the case of CTCACCTC, the binding signal (normalized occupancy) is 0.0786.

On to CCAACAGA, for which the binding signal (normalized occupancy) was 0.0753.

With GATCGCGA, the binding signal (normalized occupancy) amounted to 0.0742.

Regarding AGTTTTAG, the binding signal (normalized occupancy) was 0.0713.

For CATAAAAG, the binding signal (normalized occupancy) turned out to be 0.0783.

Consider GCTATTAA, for which the binding signal (normalized occupancy) came to 0.075.

On to AATGGTTA, for which the binding signal (normalized occupancy) turned out to be 0.0807.

As for ATTGCTAC, the binding signal (normalized occupancy) was found to be 0.0778.

As to CCAATTAA, the binding signal (normalized occupancy) is 0.0789.

AGGGAGTG: the binding signal (normalized occupancy) was determined as 0.0764.

Consider CGCGCCGC, for which the binding signal (normalized occupancy) was 0.0722.

Regarding CGGGCCAG, the binding signal (normalized occupancy) came out at 0.0675.

With AACAAGCC, the binding signal (normalized occupancy) was 0.0718.

Turning to CATTCCAG, the binding signal (normalized occupancy) came to 0.0773.

Consider CACGCAGA, for which the binding signal (normalized occupancy) was found to be 0.0851.

Regarding CTGGGAAA, the binding signal (normalized occupancy) came out at 0.0704.

As for ACGCGATA, the binding signal (normalized occupancy) was found to be 0.0795.

Take GCGGTGTA: the binding signal (normalized occupancy) is 0.0746.

Consider AGCAACAT, for which the binding signal (normalized occupancy) was 0.0801.

In the case of CGCCCCTA, the binding signal (normalized occupancy) turned out to be 0.0747.

For ATGATTGG, the binding signal (normalized occupancy) was found to be 0.0808.

Take GCGTTTCA: the binding signal (normalized occupancy) came out at 0.077.

On to CCCTGGGA, for which the binding signal (normalized occupancy) was found to be 0.0718.

For the sequence CTTCTTAA, the binding signal (normalized occupancy) was 0.0763.

On to AACTTACT, for which the binding signal (normalized occupancy) is 0.0734.

As for ATGCGAGA, the binding signal (normalized occupancy) amounted to 0.0813.

For the sequence GAATCCAC, the binding signal (normalized occupancy) came to 0.0782.

As for AGGACCAA, the binding signal (normalized occupancy) was found to be 0.069.

As to GGCTAACC, the binding signal (normalized occupancy) came out at 0.0752.

Regarding ACGCGTAG, the binding signal (normalized occupancy) worked out at 0.0796.

Consider GAATTAGA, for which the binding signal (normalized occupancy) amounted to 0.0771.

In the case of ATAAAACA, the binding signal (normalized occupancy) stood at 0.0869.

For the sequence ATTGTGAA, the binding signal (normalized occupancy) worked out at 0.0788.

Consider ACTTCGGA, for which the binding signal (normalized occupancy) was found to be 0.0692.

As to AGTCTAAG, the binding signal (normalized occupancy) is 0.07.

On to AGATTGGC, for which the binding signal (normalized occupancy) is 0.0744.

In the case of ACTGCGAC, the binding signal (normalized occupancy) worked out at 0.0694.

Take TACGATCA: the binding signal (normalized occupancy) worked out at 0.074.

As for TCTCTACA, the binding signal (normalized occupancy) was determined as 0.0764.

As to GGATTGTA, the binding signal (normalized occupancy) is 0.0757.

On to CTAGACGC, for which the binding signal (normalized occupancy) is 0.0727.

Consider AAAACGTT, for which the binding signal (normalized occupancy) turned out to be 0.0743.

On to AAAAGTCC, for which the binding signal (normalized occupancy) was found to be 0.0697.

As for AACGTTTG, the binding signal (normalized occupancy) came to 0.0771.

TCCAACAA: the binding signal (normalized occupancy) was found to be 0.0724.

For the sequence CGATAATC, the binding signal (normalized occupancy) was 0.0765.

Take TAACTCTA: the binding signal (normalized occupancy) came to 0.072.

CCCCTTTC: the binding signal (normalized occupancy) stood at 0.0738.

On to ACTGCATA, for which the binding signal (normalized occupancy) was determined as 0.0796.

Consider ATACTCGC, for which the binding signal (normalized occupancy) worked out at 0.0786.

As to CAATTCGG, the binding signal (normalized occupancy) was 0.0745.

In the case of CTACAAAC, the binding signal (normalized occupancy) is 0.0781.

Turning to CAATCCCA, the binding signal (normalized occupancy) stood at 0.0788.

On to ATGGTCCC, for which the binding signal (normalized occupancy) was 0.0791.

Take CAATTCAG: the binding signal (normalized occupancy) is 0.071.

In the case of AGCATGCA, the binding signal (normalized occupancy) came to 0.114.

For CCGATAGG, the binding signal (normalized occupancy) amounted to 0.0711.

For GGTCGAAA, the binding signal (normalized occupancy) is 0.0786.

Regarding AGGCTTAA, the binding signal (normalized occupancy) turned out to be 0.0695.

As to CTGATGAA, the binding signal (normalized occupancy) was 0.0754.

As to GCTTCGAA, the binding signal (normalized occupancy) was 0.0707.

Consider ATAACGCG, for which the binding signal (normalized occupancy) is 0.0811.

With CAATCTAG, the binding signal (normalized occupancy) was determined as 0.0722.

For AGCACAAC, the binding signal (normalized occupancy) amounted to 0.074.

For the sequence TCATTTCA, the binding signal (normalized occupancy) was determined as 0.0827.

As for AAGTTCAT, the binding signal (normalized occupancy) is 0.0737.

Turning to GGCCCGGA, the binding signal (normalized occupancy) amounted to 0.067.

In the case of AGTCAGTC, the binding signal (normalized occupancy) was 0.0716.

In the case of ACTAAAAT, the binding signal (normalized occupancy) was 0.0735.

As to GCAGTCGA, the binding signal (normalized occupancy) is 0.0687.

CCATCCCC: the binding signal (normalized occupancy) turned out to be 0.0807.

With GCTAGGCC, the binding signal (normalized occupancy) came to 0.0633.

As for CACGCGTG, the binding signal (normalized occupancy) came out at 0.17.

As to AGCGTCAG, the binding signal (normalized occupancy) stood at 0.0728.

On to ACTTGTGC, for which the binding signal (normalized occupancy) was 0.0751.

Regarding CCATCTAG, the binding signal (normalized occupancy) stood at 0.0761.

As for CAAGCCTC, the binding signal (normalized occupancy) was determined as 0.0728.

For AAGCACTA, the binding signal (normalized occupancy) worked out at 0.0755.

Consider CAGTATGA, for which the binding signal (normalized occupancy) came to 0.0747.

With CCCAGGGA, the binding signal (normalized occupancy) came to 0.0748.

On to GGACATAA, for which the binding signal (normalized occupancy) was 0.0787.

For the sequence TCCAGCGA, the binding signal (normalized occupancy) came out at 0.0711.

AAAATTTT: the binding signal (normalized occupancy) is 0.0664.

On to ACAAAAAG, for which the binding signal (normalized occupancy) amounted to 0.0691.

Consider CTTGACGA, for which the binding signal (normalized occupancy) is 0.0698.

AAGACTCT: the binding signal (normalized occupancy) is 0.0709.

Consider CATCTGCG, for which the binding signal (normalized occupancy) came to 0.0794.

Take CACTCGTA: the binding signal (normalized occupancy) turned out to be 0.0699.

For the sequence CGCCTTCA, the binding signal (normalized occupancy) stood at 0.0714.

With CACGCGGA, the binding signal (normalized occupancy) was determined as 0.15.

Take TTGAGAAA: the binding signal (normalized occupancy) came out at 0.0807.

With CCAGCGGA, the binding signal (normalized occupancy) was determined as 0.0737.

Regarding TATGGCCA, the binding signal (normalized occupancy) worked out at 0.0862.

As to ACCTACAT, the binding signal (normalized occupancy) came out at 0.085.

GGTTCGAA: the binding signal (normalized occupancy) was 0.0749.

Consider ATGCACGG, for which the binding signal (normalized occupancy) amounted to 0.0875.

On to AGTTACTG, for which the binding signal (normalized occupancy) worked out at 0.078.

Turning to GCGGCGGA, the binding signal (normalized occupancy) amounted to 0.0664.

As for CAGCCCCC, the binding signal (normalized occupancy) came to 0.0753.

For ATGGGCGA, the binding signal (normalized occupancy) worked out at 0.0772.

As to CGATGCCA, the binding signal (normalized occupancy) is 0.0777.

Turning to ACGGACCT, the binding signal (normalized occupancy) was 0.0748.

ATTTAGCA: the binding signal (normalized occupancy) amounted to 0.0739.

As for AGTTAACT, the binding signal (normalized occupancy) amounted to 0.0767.

GCGCTCAC: the binding signal (normalized occupancy) stood at 0.0771.

In the case of ACGTGAAT, the binding signal (normalized occupancy) came to 0.0824.

Take CCTTTGTA: the binding signal (normalized occupancy) worked out at 0.0734.

With CCAGTGAA, the binding signal (normalized occupancy) amounted to 0.0713.

In the case of CCCAATCC, the binding signal (normalized occupancy) amounted to 0.0749.

Take CACCCAAC: the binding signal (normalized occupancy) is 0.0751.

For the sequence ACCCAAGC, the binding signal (normalized occupancy) came out at 0.0747.

For the sequence CACAACGA, the binding signal (normalized occupancy) turned out to be 0.0744.

Regarding AGACAGTC, the binding signal (normalized occupancy) was 0.0718.

Regarding ATTAGGCG, the binding signal (normalized occupancy) was 0.0766.

As to CCATGGAG, the binding signal (normalized occupancy) amounted to 0.0784.

Take ACTAGCCA: the binding signal (normalized occupancy) worked out at 0.0701.

On to CTACAGTC, for which the binding signal (normalized occupancy) turned out to be 0.0741.

As for CAGCTGGC, the binding signal (normalized occupancy) came to 0.0726.

In the case of ATTAAACC, the binding signal (normalized occupancy) came to 0.08.

As to ACCCGGAT, the binding signal (normalized occupancy) was determined as 0.0752.

Consider TACACATA, for which the binding signal (normalized occupancy) was determined as 0.0846.

Consider GAGATAAA, for which the binding signal (normalized occupancy) was 0.0774.

CTCGAGCC: the binding signal (normalized occupancy) was determined as 0.0744.

On to CGATGGAC, for which the binding signal (normalized occupancy) stood at 0.0705.

As for ATGCGCGC, the binding signal (normalized occupancy) was determined as 0.0844.

AATTGGGT: the binding signal (normalized occupancy) came to 0.0727.

As to GGATCAGA, the binding signal (normalized occupancy) amounted to 0.0774.

As for GCATATCC, the binding signal (normalized occupancy) came to 0.0834.

As to AAGGACAC, the binding signal (normalized occupancy) turned out to be 0.0757.

As to TTACGGAA, the binding signal (normalized occupancy) is 0.0743.

As to CTACTACA, the binding signal (normalized occupancy) stood at 0.0787.

CGCTGCCC: the binding signal (normalized occupancy) stood at 0.0694.

Take GGATTACA: the binding signal (normalized occupancy) came to 0.0779.

As to AAGATCCG, the binding signal (normalized occupancy) turned out to be 0.0754.

As for GGGAGATA, the binding signal (normalized occupancy) was 0.0827.

As to AGGATTGC, the binding signal (normalized occupancy) worked out at 0.0735.

For CAAATTGC, the binding signal (normalized occupancy) came to 0.0713.

For the sequence CAGACTGC, the binding signal (normalized occupancy) amounted to 0.07.

ATATCTTA: the binding signal (normalized occupancy) is 0.0733.

AGATCATG: the binding signal (normalized occupancy) was 0.0913.

Consider AATCTATC, for which the binding signal (normalized occupancy) came out at 0.08.

Regarding ACTACTTC, the binding signal (normalized occupancy) amounted to 0.0704.

For AGGGATGA, the binding signal (normalized occupancy) was found to be 0.0811.

On to TACCTAGA, for which the binding signal (normalized occupancy) came out at 0.073.

ATCGCCCA: the binding signal (normalized occupancy) came to 0.0796.

For the sequence AAGAGAAC, the binding signal (normalized occupancy) came out at 0.0739.

In the case of AACGTCAT, the binding signal (normalized occupancy) was 0.0774.

With ACGAGCCA, the binding signal (normalized occupancy) worked out at 0.0776.

In the case of TACCAGAA, the binding signal (normalized occupancy) was determined as 0.0769.

In the case of GCCCAACA, the binding signal (normalized occupancy) was 0.0745.

On to AGAGTGCA, for which the binding signal (normalized occupancy) is 0.0743.

As for GGAATGCC, the binding signal (normalized occupancy) worked out at 0.0756.

As for GTCCGTAA, the binding signal (normalized occupancy) came out at 0.0709.

On to GTAACCTA, for which the binding signal (normalized occupancy) came out at 0.0752.

As for AATTAGAT, the binding signal (normalized occupancy) was 0.078.

As to GCGCCGGA, the binding signal (normalized occupancy) stood at 0.0702.

As for AAGATAAT, the binding signal (normalized occupancy) was 0.0764.

Regarding AATGCCCG, the binding signal (normalized occupancy) came to 0.0739.

CAGAGGGA: the binding signal (normalized occupancy) came to 0.0668.

CCCCAAGA: the binding signal (normalized occupancy) stood at 0.0741.

In the case of AAAAATAC, the binding signal (normalized occupancy) worked out at 0.0817.

Turning to CTACGCCC, the binding signal (normalized occupancy) came out at 0.0726.

Regarding GTCGCAGA, the binding signal (normalized occupancy) was 0.0705.
